# The inconclusive results got no clear call from the source; some entries with a clear call stand among them for comparison. For part of these data: A potency beside an inconclusive call is a rough fit, not a confirmed value. Calls of active or inactive are those of the source. The call rests on the fitted dose curve; in most records, active means well fitted curve in the direction sought with a large enough effect; inconclusive means small, poorly fitted or top-dose-only effect, or another doubt; inactive means no such curve, though single readings can be large; an effect the other way counts as inactive or inconclusive.
# Experiments:
# [1] = UWB1.289 Cancer Cell Toxicity qHTS against the NCATS CANVASS Library (AID 1347347); further: nearly all actives have a fitted effect of over 60% in size; further: potency means the concentration at half of the fitted maximal effect; on activity change, negative = cytotoxicity: on the % scale 0 is the no-effect control and ±100 the full control effect
# Outline: (§1)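 Per well, 1000 cells; exposure 72 h with compound at 11 final concentrations; readout CellTiter-Glo luminescence.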
# [2] = Panc-1005 Cancer Cell Toxicity qHTS against the NCATS CANVASS Library (AID 1347349); further: potency means the concentration at half of the fitted maximal effect; nearly all actives have a fitted effect of over 60% in size
# Outline: as §1
# [3] = SW1088 Cancer Cell Toxicity qHTS against the NCATS CANVASS Library (AID 1347350); further: nearly all actives have a fitted effect of over 75% in size; further: potency means the concentration at half of the fitted maximal effect
# Outline: as §1
# [4] = U-118MG Cancer Cell Toxicity qHTS against the NCATS CANVASS Library (AID 1347351); further: potency means the concentration at half of the fitted maximal effect; on activity change, negative = cytotoxicity: on the % scale 0 is the no-effect control and ±100 the full control effect
# Outline: as §1
# [5] = COV-362 Cancer Cell Toxicity qHTS against the NCATS CANVASS Library (AID 1347352); further: potency means the concentration at half of the fitted maximal effect
# Outline: (§2)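 Luminescent ATP read-out (CellTiter-Glo, 15min at room temperature) measures survival after cells face an 11-point compound series for 72 hours at 37 degrees C/5% CO2.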
# [6] = UWB1.289-WTBRCA1 Cancer Cell Toxicity qHTS against the NCATS CANVASS Library (AID 1347354); further: potency means the concentration at half of the fitted maximal effect
# Outline: as §2
# [7] = KB-8-5-11 Cancer Cell Toxicity qHTS against the NCATS CANVASS Library (AID 1347364); details: activity change, negative = toxicity: at 46.1 µM (top of the series); further: nearly all actives have a fitted effect of over 75% in size; further: potency means the concentration at half of the fitted maximal effect; on activity change, negative = toxicity: on the % scale 0 is the no-effect control and ±100 the full control effect
# Outline: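 Plate 500 KB-8-5-11 cells per well in DMEM + 10% FBS, add compounds by pin transfer, incubate 72 hr at 37C. Add CellTiter-Glo, wait 10 minutes at room temperature, read luminescence.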
# [8] = KB-3-1 Cancer Cell Toxicity qHTS against the NCATS CANVASS Library (AID 1347366); further: potency means the concentration at half of the fitted maximal effect; nearly all actives have a fitted effect of over 75% in size
# Outline: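 Seed KB-3-1 cells at 500/well in DMEM with 10% FBS, add compounds, incubate 72 hr at 37C and 5% CO2, then add CellTiter-Glo and read luminescence after 10 minutes.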
# [9] = MCF7 Cancer Cell Toxicity qHTS against the NCATS CANVASS Library (AID 1347369); details: activity change, negative = cytotoxicity: at 46 µM (top of the series); further: potency means the concentration at half of the fitted maximal effect
# Outline: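 Cytotoxicity is measured by ATP content: MCF7 cells at 500 per well receive an 11-point compound series and, after 72 hr at 37C, are lysed with CellTiterGlo for luminescence.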
# [10] = J3T Cancer Cell Toxicity qHTS against the NCATS CANVASS Library (AID 1347371); further: potency means the concentration at half of the fitted maximal effect
# Outline: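 Cells plated at 500 per well, compounds pin-transferred, plates incubated 72 hr at 37C, then CellTiterGlo added and luminescence read to measure ATP content.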
# [11] = target: Nuclear receptor subfamily 1 group I member 3 (Homo sapiens) (UniProt Q14994); assay: qHTS for Constitutive Androstane Receptor (CAR) Antagonist screened against the NCATS CANVASS Library (AID 1347372); further: potency means the concentration at half of the fitted maximal effect
# Outline: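 HepG2-CYP2B6-hCAR double-stable cells plated, 4hr attach; cpd pin-transferred; CITCO 50 nM final; 24hr 37C/5% CO2; CellTiter-Fluor 1hr (fluorescence), then ONE-Glo luminescence.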
# [12] = target: Nuclear receptor subfamily 1 group I member 3 (Homo sapiens) (UniProt Q14994); assay: qHTS for Constitutive Androstane Receptor (CAR) Agonist screened against the NCATS CANVASS Library (AID 1347373);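 further: every well also contained 1.5 µM PK11195 alongside the test compound; potency means the concentration at half of the fitted maximal effect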
# Outline: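 HepG2-hCAR-CYP2B6 cells, 2500/well, attached 4hr; cpd + PK11195 1.5uM final; 24hr 37C 5% CO2. CellTiter-Fluor viability read, then ONE-Glo luminescence for CAR activation.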
# [13] = qHTS for H2AX Agonists against the NCATS CANVASS Library (AID 1347378)
# Outline: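 Following overnight seeding, CHO-K1 cells are incubated with a concentration series of compound for 3 hr at 37C (final DMSO 0.76%). Cells are then lysed, detection antibodies added, and emission ratio 665/620 nm recorded after 24 hr at room temperature.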
# [14] = Secretion counterscreen for inhibitors of the SERCaMP assay screened against the NCATS CANVASS Library (AID 1347390); details: SH-SY5Y constitutive GLuc secretion, luminescence, 20 h; activity change, negative = inhibition: at 76.6 µM (top of the series);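 further: light from luciferase secreted into medium read as a measure of general secretion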; further: potency means the concentration at half of the fitted maximal effect
# Outline: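 Counterscreen identifying compounds that disrupt secretion, using SH-SY5Y cells with a constitutively secreted Gaussia luciferase reporter. A 20 h compound exposure (top 77 uM) precedes luminescent detection with coelenterazine.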
# [15] = qHTS for activators of dead-cell proteases activity screened against the NCATS CANVASS Library (AID 1347392);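 further: luminescence from protease leaking out of membrane-damaged cells cleaving impermeant substrate; 0% is about no effect; rising signal means more cytotoxicity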
# Outline: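 Compounds are pin-transferred onto attached HepG2 cells, giving 11 final concentrations. After 5 h at 37C, AAF-aminoluciferin reagent is added and luminescence is recorded at room temperature.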
# [16] = qHTS for inhibitors of Wild type Zika virus screened against the NCATS CANVASS Library (AID 1347396); further: potency means the concentration at half of the fitted maximal effect
# Outline: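 Vero 766 (African green monkey) cells, 1000 per well, attached overnight, then compounds were added in an 11-point series before wild-type Zika virus infection. After 72 h at 37C, cell viability was read as CellTiter Glo luminescence.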
# [17] = Redox Reaction Profiling qHTS: Assay Interference Panel against the NCATS CANVASS Library (AID 1347401); further: potency means the concentration at half of the fitted maximal effect
# Outline: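 Cell-free redox surrogate: 5 uM resazurin + 200 uM DTT, 50 mM HEPES pH 7.3/50 mM NaCl; cpds pinned, 11-pt qHTS; Ex525/Em598 read t0 and t=15 min, dark.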
# [18] = A2780 Cisplatin Sensitive Ovarian Cancer Cell Toxicity qHTS against the NCATS CANVASS Library (AID 1347353); further: nearly all actives have a fitted effect of over 60% in size; further: potency means the concentration at half of the fitted maximal effect; on activity change, negative = cytotoxicity: on the % scale 0 is the no-effect control and ±100 the full control effect
# Outline: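 Luminescent ATP content (ATPLite, 10 min at room temperature) served as the read-out after cells had been exposed to compounds for 72 hours at 37 °C. Dosing followed an 11-point concentration series.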
# [19] = G06 Cancer Cell Toxicity qHTS against the NCATS CANVASS Library (AID 1347368); further: nearly all actives have a fitted effect of over 60% in size; further: potency means the concentration at half of the fitted maximal effect
# Outline: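 Dog G06 glioma line, 500 cells/well; cpds pin-transferred, 11-pt; 72 hr, 37C/5% CO2; CellTiterGlo luminescence (ATP) endpoint.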
# [20] = 10-beta competent E. coli microbial cell viability qHTS against the NCATS CANVASS Library (AID 1347376); further: potency means the concentration at half of the fitted maximal effect
# Outline: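 E. coli 10-beta, 0.2 OD; cpds 11-pt; o/n 37C, 5% CO2; BacTiter-Glo 20 min RT; luminescence (ATP) = viable cells. Daunomycin ctrl.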
# [21] = DH5-alpha competent E. coli microbial cell viability qHTS against the NCATS CANVASS Library (AID 1347377); details: viability signal change, negative = cytotoxic: at 46.1 µM (top of the series); further: potency means the concentration at half of the fitted maximal effect
# Outline: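 qHTS, 11-pt; E. coli DH5-alpha, 0.2 OD; o/n 37C/5% CO2; BacTiter-Glo, 20 min RT; luminescence.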
# [22] = qHTS for Antimalaria activity screened against the NCATS CANVASS Library (AID 1347380); further: nearly all actives have a fitted effect of over 40% in size; further: potency means the concentration at half of the fitted maximal effect;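 on activity change, negative = inhibition: Plasmodium falciparum strain Dd2 asexual parasites grown in red blood cells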
# Outline: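 Dd2 strain, infected erythrocytes 2.5% Hct final / 0.3% parasitemia. 11-pt qHTS titration, 72 h, 37C, 5% O2, 5% CO2. Lysis buffer + SYBR Green, 18 h, fluorescence 485/535 nm.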
# [23] = qHTS for Activators of p53 Stress Response Pathway screened against the NCATS CANVASS Library (AID 1347388); further: potency means the concentration at half of the fitted maximal effect
# Outline: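 Beta-lactamase reporter driven by p53 response elements in HCT-116 cells, read as the 460 nm/530 nm emission ratio after CCF4 loading, following 16 h of exposure to an 11-point series. Cell viability was measured in the same wells by CellTiter-Glo luminescence.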
# [24] = qHTS assay for small molecule disruptors of mitochondrial membrane potential screened against the NCATS CANVASS Library (AID 1347389)
# Outline: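 HepG2, 2,000 cells/well, attached overnight; compound 1 hr, 37C, 5% CO2; Mito-MPS dye 30 min, 37C; fluorescence 535 nm (monomer) and 590 nm (aggregate); decreased 590/535 ratio = depolarization.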
# [25] = Viability qHTS for inhibitors of the SERCaMP assay screened against the NCATS CANVASS Library (AID 1347400); further: on the % scale 0 is the no-effect control and ±100 the full control effect; nearly all actives have a fitted effect of over 70% in size
# Outline: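 SH-SY5Y SERCaMP MJH297 cells, 1000/well; 4 h settle, 37C/5% CO2; pin-transferred cpds; 48 h; CellTiter-Glo lum. Pos ctrl bortezomib 0.0001 - 4.6 uM.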
# [26] = Inflammasome Signaling qHTS Counterscreen: IL-1-beta AlphaLISA counterscreen against the NCATS CANVASS Library (AID 1347381);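 further: cell-free check with purified IL-1β in medium and no THP-1 cells; 0% is about no effect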
# Outline: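 Cell-free interference check: compounds added to medium spiked with 4 pg purified IL-1β. Anti-IL-1β acceptor beads (6 ug/mL) with 0.6 nM biotinylated antibody added for 1 h at RT, then streptavidin donor beads (24 ug/mL) for 30 min in the dark. AlphaLISA read at 680/615 nm.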
# [27] = qHTS for Hypoxia signaling pathway (HIF-1) antagonists against the NCATS CANVASS Library (AID 1347374)
# Outline: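 HRE-bla ME-180 cells in medium with 0.5% dialyzed FBS received compounds (11-point series) plus CoCl2 (60 uM addition stock) for 17 hrs at 37C. Beta-lactamase activity read with CCF4 (405 nm ex, 460/530 nm em); CellTiter-Glo viability measured in same wells.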
# [28] = qHTS for Inflammasome Signaling Inhibitors: IL-1-beta AlphaLISA screen against the NCATS CANVASS Library (AID 1347379)
# Outline: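 THP-1 cells pretreated 1 hr with compound (up to 57.5 uM final), then stimulated with LPS (250 ng/mL final) and ATP (1.25 mM final). Secreted IL-1B measured by AlphaLISA after 16 hr; glyburide as positive control.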
# [29] = qHTS for activators of Nrf2/ARE signaling pathway screened against the NCATS CANVASS Library (AID 1347391)
# Outline: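 Plate ARE-bla HepG2 cells at 2000/well and let them settle 5 h. Pin-transfer compounds in DMSO, incubate 16 h at 37C. Load CCF4 for 2 h at room temperature and read blue/green fluorescence.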
# [30] = qHTS for inhibitors of ER calcium dysfunction: SERCaMP assay screened against the NCATS CANVASS Library (AID 1347393); details: SH-SY5Y GLuc-SERCaMP (Gaussia luciferase released on ER calcium loss) secretion, thapsigargin, luminescence; activity change, negative = inhibition: at 76.6 µM (top of the series) unless noted;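 further: on the % scale 0 is the no-effect control and ±100 the full control effect; lower secreted reporter signal means inhibitor of ER calcium depletion; nearly all actives have a fitted effect of over 40% in size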
# Outline: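 Thapsigargin-induced ER calcium depletion drives GLuc-SERCaMP secretion from SH-SY5Y cells; compounds given 16 h beforehand were scored by lowered coelenterazine luminescence after 4 h challenge.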
# [31] = Vero-766 cells viability qHTS against the NCATS CANVASS Library: Counterscreen for Zika virus inhibition assay (AID 1347394); details: Vero 766 viability, CellTiter-Glo luminescence, 72 h; activity change, negative = cytotoxic: at 46.1 µM (top of the series)
# Outline: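 This cytotoxicity counterscreen uses African green monkey Vero 766 cells in the absence of Zika virus. Compounds are incubated with cells for 72 h, and ATP-based luminescence reports viability.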
# Tags describe the fitted curve by direction and shape.
# Chain of UniProt Q14994 (Q14994 whole entry, looked up): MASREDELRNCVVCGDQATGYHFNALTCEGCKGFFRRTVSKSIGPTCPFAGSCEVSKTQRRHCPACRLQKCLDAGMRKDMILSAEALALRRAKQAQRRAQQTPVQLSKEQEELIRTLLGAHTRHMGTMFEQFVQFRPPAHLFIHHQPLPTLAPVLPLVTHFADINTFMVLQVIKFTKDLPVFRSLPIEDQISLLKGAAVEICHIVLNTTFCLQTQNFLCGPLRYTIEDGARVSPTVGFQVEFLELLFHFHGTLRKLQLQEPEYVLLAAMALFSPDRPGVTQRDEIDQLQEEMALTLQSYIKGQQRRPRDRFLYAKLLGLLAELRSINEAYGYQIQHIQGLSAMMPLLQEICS
structure (smiles),measurement,setting,value
CO[C@H]1/C=C/CC[C@@H](S[C@@H]2O[C@H](CO)[C@@H](O)[C@H](O)[C@H]2O)CC(=O)O[C@@H](/C(C)=C/[C@H](C)C(=O)CCCC2CC(=O)NC(=O)C2)[C@@H](C)[C@@H]1O,Potency,[1],active: 2.98 µM
same,Potency,[2],active: 4.21 µM
same,Potency,[3],"inconclusive: 9.43 µM [cytotoxic, full curve]"
same,Potency,[4],"inconclusive: 7.49 µM [cytotoxic, partial curve]"
same,Potency,[5],"inconclusive: 4.2 µM [cytotoxic, full curve]"
same,Potency,[6],"inconclusive: 5.94 µM [cytotoxic, full curve]"
same,"activity change, negative = toxicity",[7],inconclusive: -85.2%
same,Potency,[8],active: 20.9 µM
same,Potency,[9],"inconclusive: 6.59 µM [cytotoxic, full curve]"
same,Potency,[10],"inconclusive: 2.35 µM [cytotoxic, full curve]"
same,Potency,[11],active: 14.8 µM
same,Potency,[12],"inconclusive: 0.117 µM [activator, partial curve, poor fit]"
same,Potency,[13],"inconclusive: 17.2 µM [activator, full curve]"
same,Potency,[14],active: 7.67 µM
same,Potency,[15],inactive
same,Potency,[16],inactive
same,Potency,[17],"inconclusive: 5.41 µM [activator, partial curve]"
O=C1c2c(O)cc(O)cc2O[C@@H](c2ccc(O)cc2)[C@@H]1c1c(O)cc(O)c2c(=O)cc(-c3ccc(O)c(O)c3)oc12,Potency,[1],inactive
same,Potency,[4],inactive
same,Potency,[18],inactive
same,Potency,[19],"inconclusive: 18.7 µM [cytotoxic, partial curve]"
same,Potency,[20],"inconclusive: 20.9 µM [cytotoxic, partial curve, poor fit]"
same,Potency,[21],"inconclusive: 18.6 µM [cytotoxic, partial curve, poor fit]"
same,Potency,[22],"inconclusive: 4.2 µM [cytotoxic, partial curve, poor fit]"
same,Potency,[23],"inconclusive: 29.5 µM [activator, single point]"
same,Potency,[24],"inconclusive: 18.6 µM [inhibitor, partial curve]"
same,Potency,[14],inactive
same,Potency,[16],inactive
same,Potency,[25],inactive
CC(O)/C=C/C1(O)C(C)(C)CC(O)CC1(C)O (stereo unspecified),Potency,[1],inactive
same,Potency,[3],inactive
same,Potency,[6],inactive
same,Potency,[22],"inconclusive: 21.1 µM [rising, single point]"
same,Potency,[26],inactive
same,Potency,[14],inactive
COc1c(O)cc(O)c2c(=O)cc(-c3ccccc3)oc12,Potency,[1],"inconclusive: 21.1 µM [cytotoxic, single point]"
same,Potency,[4],"inconclusive: 21.1 µM [cytotoxic, single point]"
same,Potency,[5],inactive
same,Potency,[18],"inconclusive: 33.2 µM [cytotoxic, single point]"
same,Potency,[7],"inconclusive: 14.8 µM [cytotoxic, partial curve]"
same,Potency,[8],"inconclusive: 18.7 µM [cytotoxic, partial curve]"
same,Potency,[19],inactive
same,Potency,[27],active: 10.6 µM
same,Potency,[28],"inconclusive: 30.6 µM [inhibitor, single point]"
same,Potency,[22],inactive
same,Potency,[23],"inconclusive: 18.6 µM [activator, partial curve]"
same,Potency,[14],inactive
same,Potency,[29],"inconclusive: 11.7 µM [activator, single point]"
same,Potency,[30],inactive
same,Potency,[31],"inconclusive: 23.4 µM [cytotoxic, partial curve, poor fit]"
same,Potency,[16],"inconclusive: 26.1 µM [inhibitor, partial curve, poor fit]"

# Reference: PubChem BioAssay (NCATS)
